Each structure is given as a SMILES string. Several values for one entry are separate records, joined by “and”; a condition that tells them apart may be missing. Identical values can stand only once. The campaign covered roughly 48,000 compounds. About 1,200 (2.5%) were called active. Another 2% or so got no clear call; they are omitted.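 Rule for the calls: active = activation of at least 60% and not above a set upper limit (about 1 call in 100 departs from these limits); inconclusive = activation of 40% to 60%, or above that upper limit; inactive = activation under 40%.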 This is one part of the list.

Sequence of UniProt O75388 (O75388 whole entry, looked up): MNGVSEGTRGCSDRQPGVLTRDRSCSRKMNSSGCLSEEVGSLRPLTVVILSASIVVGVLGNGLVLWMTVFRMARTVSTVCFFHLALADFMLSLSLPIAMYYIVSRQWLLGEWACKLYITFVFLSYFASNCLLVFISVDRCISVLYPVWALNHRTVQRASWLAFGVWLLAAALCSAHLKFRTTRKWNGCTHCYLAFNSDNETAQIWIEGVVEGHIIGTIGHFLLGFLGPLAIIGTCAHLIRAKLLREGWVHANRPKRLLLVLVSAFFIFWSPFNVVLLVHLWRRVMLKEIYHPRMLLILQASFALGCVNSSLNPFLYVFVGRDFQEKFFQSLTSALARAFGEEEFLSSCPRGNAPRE

This assay has as its target Probable G-protein coupled receptor 32 (Homo sapiens) (UniProt O75388). The experiment in a line: qHTS for Agonists of Human Resolvin D1 Receptor DRV1. Note: 0% is about no effect. Conditions: CHO-K1 GPR32 beta-arrestin PathHunter luminescence, 90 min; at 76.9 µM; stronger effect = higher value; zero percent set by DMSO-only wells. The procedure, abridged:
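PathHunter beta-arrestin recruitment in CHO-K1 cells stably expressing ProLink-tagged GPR32. Cells were exposed to compound for 90 min at 37 C, then chemiluminescence was read after 1 h detection at ambient temperature; DMSO served as basal control.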
On to `Fc1cccc(-n2ncc3c2ncn2nc(Cc4ccccc4)nc32)c1`, for which the activation was inactive: -3.47%. In the case of `COc1ccc(NC(=O)CN(c2cc(C)cc(C)c2)S(=O)(=O)c2c(C)noc2C)cc1Cl`, the activation was inactive: -1.98%.

Turning to `COc1ccccc1CNC(=O)CCC1N=C2c3ccccc3N=C(SCc3ccc(C)cc3C)N2C1=O` (stereo not drawn), the activation was inactive: -2.83%. To `CC(N=C(NC#N)Nc1ccncc1)C(C)(C)C` (stereo not drawn) belongs inactive: 7.91% and inactive: -7.85%; to `Cc1ccccc1Nc1c(-c2ccc(N3CCOCC3)cc2)nc2ccccn12`, inactive: -26.5%; to `COc1ccc(NC(=O)CSc2ccc3nc(-c4ccccc4)cn3n2)cc1OC`, inactive: -13.7%. With `CC(C)NC(=O)c1nn(-c2ccccc2F)nc1CO`, the activation was inactive: -8.71%. The value for `COc1ccc(-c2nc(SCC(=O)Nc3ccc4c(c3)OCCO4)c(-c3ccc(C)cc3)[nH]2)cc1OC` was inactive: -34.8%. On to `CC(C)(C)OC(=O)N1CCC(c2nnc(SCc3cccc(Cl)c3)o2)CC1`, for which the activation was inactive: 2.34%. For the compound `Cc1ccc(CNC(=O)CN2C(=O)COc3ccc(S(=O)(=O)Nc4ccccc4)cc32)cc1`, the activation is inactive: -5.5%.

`Cc1cc(C)cc(NC(=O)CSc2nc(-c3ccccc3)c3cc(F)ccc3n2)c1`: the activation was inactive: -0.0932%. `Cc1ccc2c(c1)-c1ncc(C(=O)c3ccccc3O)cc1CO2`: the activation was inactive: -9.25%.

As for `CCc1ccc(NC(=O)CC2C(=O)N(c3cccc(OC)c3)C(=O)N2C2CCCC2)cc1` (stereo not drawn), the activation is inactive: -27.7%. To `CC(=O)OCC(=O)[C@@]1(OC(C)=O)[C@@H](C)C[C@H]2[C@@H]3C[C@H](F)C4=CC(=O)C=C[C@]4(C)[C@@]3(F)[C@@H](O)C[C@@]21C` belongs inactive: -4.15%; to `Cc1ccc(C(=O)NC2=NC(c3ccc(C)cc3)CC(=O)N2)cc1` (stereo not drawn), inactive: -11.9%. The value for `Cc1cc(C)cc(NC(=O)c2cc(CN3CCCC3)on2)c1` was inactive: -12%. Regarding `CC(=O)c1ccc(NC(=O)c2cc3sccc3n2Cc2ccc(F)cc2)cc1`, the activation was inactive: 40.5%. To `CCCCCOC(=O)CSc1ncnc2sc3c(c12)CCC(C)C3` (stereo not drawn) belongs inactive: -8.14%. With `CCOC(=O)c1c(NC(=O)c2cc3ccccc3c(=O)o2)sc2c1CCC(C)C2` (stereo not drawn), the activation was inactive: 2.91%. The value for `CSc1ccc(CCNC(=O)CCn2c(=O)c3cccn3c3ccc(F)cc32)cc1` was inactive: -31%. To `C[C@]1(Cn2ccnn2)[C@H](C(=O)O)N2C(=O)C[C@H]2S1(=O)=O` belongs inactive: -5.12%. `COc1cc(OC)cc(C(=O)Nc2cc3c(cc2N2CCCC2)n(C)c(=O)c(=O)n3C)c1`: the activation was inactive: -7.35%. To `COc1ccc(-n2c(=O)c3ccccc3n(CC(=O)Nc3ccccc3OC)c2=O)cc1` belongs inactive: -0.0267%.
